The campaign covered roughly 46,000 compounds. About 60 (0.1%) were called active. Roughly 3% stayed inconclusive and do not appear here. The call rests on the fitted dose curve; in most records, active means well fitted inhibition curve with a large enough effect; inconclusive means small, poorly fitted or top-dose-only effect; inactive means no such curve, though single readings can be large or run the other way. Some of the results follow.
assay: Primary qHTS assay for Inhibitors of ovarian cancer metastasis using an organotypic tumor microenvironment (TME) model.; further: nearly all actives have a fitted effect of over 65% in size;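 on activity change, negative = inhibition: plate controls were DMSO wells for no effect and tomatine positive control wells for full effect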; conditions: SKOV3ip1-GFP adhesion/invasion on 3D omental model, fluorescence; series mostly up to 45.8 µM; activity change, negative = inhibition: at the top concentration
Procedure, shortened: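 Primary human omental fibroblast/mesothelial 3D culture pre-formed 48 h. SKOV3ip1-GFP cells added with compounds (0.36-46 umol/L), incubated 2 h RT/16 h 37 C, fixed; GFP cells quantified at 488/509 nm.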

Activity change, negative = inhibition, inactive:
CN(C)C(=O)c1ccc(NC(=O)Cn2nnnc2-c2ccccc2F)cc1 2.63%, COCCCNS(=O)(=O)c1cc(-c2onc(C)c2C)ccc1OC -4.47%, COc1ccc(-c2noc(CCC(=O)N(C)c3ccccc3C)n2)cc1 8.04%, Cc1ccccc1C(=O)N(Cc1ccc(N(C)C)cc1)Cc1ccco1 1.12%, COc1ccc(N(CC(=O)NCc2ccc(F)cc2)S(=O)(=O)c2c(C)noc2C)cc1 15.8%, N#Cc1ccc(-c2cccs2)nc1SCc1c(F)cccc1Cl -33%, CN(C)c1ccc(CN(CC2CCCO2)C(=O)COc2ccccc2Cl)cc1 (configuration not stated) 15.7%, COc1ccc(OC)c(-c2nc3c(C#N)c[nH]n3c2NC2CCCCC2)c1 -15.8%, CC1=C(C(=O)Nc2ccc(Cl)cc2)C(c2ccccc2C)n2ncc(C(=O)Nc3ccc(C)cc3)c2N1 (configuration not stated) -7.44%, COc1ccc(CCNC(=O)C(=O)NCC(c2ccc3c(c2)OCO3)N2CCOCC2)cc1 (configuration not stated) 5.7%, Cc1cccc(OCC(=O)NC(Cc2c[nH]c3ccccc23)C(=O)O)c1C (configuration not stated) -0.195%, COc1ccc(-c2ccc3c(N4CCOC[C@H]4C)nc(N4CCOC[C@H]4C)nc3n2)cc1CO -14.6%, CCc1nonc1NC(=O)c1oc2ccc(F)cc2c1C 3.76%, CN(C)c1ccc(CNC(=O)C2CCCN(S(=O)(=O)c3ccc4c(c3)oc(=O)n4C)C2)cc1 (configuration not stated) 28.9%, Cn1c(=O)n(-c2ccc(C(C)(C)C#N)cc2)c2c3cc(-c4cnc5ccccc5c4)ccc3ncc21 28%, COc1ccc(-n2cc(-c3ccccc3)c3c(NC4CCCCC4)ncnc32)cc1 -15.1%, O=C(Nc1cc(F)ccc1F)N1CCC(CN2CCOCC2)CC1 6.11%, Cc1cccc(OCCCCn2c(C3CC(=O)N(c4ccccc4Cl)C3)nc3ccccc32)c1 (configuration not stated) -9.25%, Cc1ccc2c(CC(=O)Nc3cccc(Cl)c3C)coc2c1 0.184%, Cn1c(=O)n(C/C=C/c2ccccc2)c(=O)c2c1nc1n2CCN1c1ccc(F)cc1 3.51%, CCOc1ccc(-c2cnc(NCc3ccc(C(F)(F)F)cc3)n2C)cc1 -17.5%, CN1CCN(c2ncc3c(n2)CCN(Cc2cc(Br)cs2)C3)CC1 5.52%, COc1ccc(C(=O)CC2(O)C(=O)Nc3c(C)cccc32)c(OC)c1OC (configuration not stated) -9.91%, CCOc1ccc(-n2c(SCC(=O)Nc3cccc(Cl)c3)nc3c(oc4ccccc43)c2=O)cc1 1.25%, CCN1C(=O)c2ccccc2Sc2ccc(NC(=O)COc3ccc(Cl)cc3)cc21 1.94%, CCc1ccc(CNC(=O)c2ccc3nc(SCc4ccc(F)cc4)n(C)c3c2)cc1 -11.1%, Cc1ccc(NC(=O)CSc2cc(=O)n(C)c3ccc(Cl)cc23)c(Br)c1 -3.38%, Cc1ccc(NS(=O)(=O)c2ccc3c(c2)NC(=O)C(C)C(=O)N3)cc1F (configuration not stated) -10.5%, COc1ccc(CNS(=O)(=O)c2cc3c(cc2C)n(C)c(=O)c(=O)n3C)cc1 -0.101%, COc1cccc(NC(=O)c2nn(-c3ccc(C)cc3)c(=O)n(C)c2=O)c1 -15.5%, CC(C)CN(CC(C)C)C(=O)C1CCCN(S(=O)(=O)c2ccc3c(c2)oc(=O)n3C)C1 (configuration not stated) 9.85%, Cc1cccc(NC(=O)Cn2c(=O)n(CCC(C)C)c(=O)c3cccnc32)c1 16.9%, Cc1ccc(NC(=O)c2cnn(-c3ccc(C)c(C)c3)c2C2CCN(C(=O)OC(C)(C)C)CC2)c(C)c1 38%, CCCCN(C)CCNC(=O)c1c(C)oc2ncnc(N3CCOCC3)c12 -17.1%, CC(NC(=O)c1ccc2c(c1)N(Cc1cccc(F)c1)C(=O)c1ccccc1S2)c1ccccc1 (configuration not stated) 3.88%, O=C(CCSCCc1ccccn1)Nc1cc(F)ccc1F 2.98%, Cc1ccc(-n2c(=O)c3c(c4cc(C)ccc4n3C)n(CC(=O)Nc3c(C)cccc3C)c2=O)cc1 -4.13%, Cc1ccc(CNc2ccc(-c3nc(C(C)C)no3)cc2[N+](=O)[O-])cc1 1.48%, Cc1oc2ccc(O)c(CN3CCOCC3)c2c1C(=O)Nc1ccccc1 -6.92%, COc1cc(NC(=O)CN2C(=O)C(c3ccc(C)cc3)=NC23CCCCC3)cc(OC)c1 -0.83%, Cc1ccc(-n2nc(C(=O)N3CCN(c4cccc(C(F)(F)F)c4)CC3)c(=O)n(C)c2=O)cc1 -0.902%, Cc1nc2c(C(=O)NCc3ccccc3)cnn2c(C)c1Cc1ccc(F)cc1 1.62%, O=c1c2cnn(-c3ccc(Cl)cc3)c2ncn1Cc1ccc(Cl)cc1Cl -11%, Cc1ccc(Cn2c(=O)n(Cc3ccco3)c(=O)c3sc4ccccc4c32)cc1 -14.8%, O=c1c2sc3ccccc3c2n(Cc2ccccc2F)c(=O)n1Cc1ccccc1 -19.1%, COc1ccc(Cl)cc1NC(=O)c1cc(C)nc2c1c(C)nn2-c1ccccc1 0.246%, COc1cccc(CNC(=O)C2CCN(C(=O)N3CCOc4ccc(Cl)cc43)CC2)c1OC -1.43%, CCC(CC)C(=O)Nc1cc(-c2cccc(C)c2)nn1-c1ccccc1 11.6%, O=C(CC1N=C2c3ccccc3N=C(SCc3ccccc3F)N2C1=O)NCCc1ccccc1 (configuration not stated) 2.21%, CC(=O)N1CCC2(CC1)OC(=O)C(C)=C2C(=O)Nc1cccc(Cl)c1C -26%, Cc1cccc(C(=O)Nc2cc3c(cc2N2CCCCC2)n(C)c(=O)c(=O)n3C)c1 -12.2%, CC(C)CC(=O)Nc1nnc(S(=O)(=O)N2CCCCCC2)s1 4.3%, CCOC(=O)c1ccc(NC(=O)Cn2nc(SC)c(S(=O)(=O)c3ccc(Cl)cc3)c2N)cc1 -54.5%, COc1ccc(-c2nc3cc(NC(=O)Cc4ccc(Cl)cc4)ccc3o2)cc1OC -2.71%, Cc1ccc(Cl)cc1Nc1nc2ccccc2c2nncn12 1.07%, CCOc1ccc(C(=O)Nc2cc(NC(=O)c3ccco3)ccc2OC)cc1Br -2.4%, Cc1ccc(CCNC(=O)CCN2N=C(c3ccc(C)cc3)CCC2=O)cc1 -1.45%, COc1ccc(OC)c(-n2nnc3c(sc4nc(C)c(Br)c(C)c43)c2=O)c1 -6.71%, COc1ccccc1NC(=O)N1c2ccccc2Sc2ccccc21 -7.13%, Cc1ccc(C(=O)N(Cc2sccc2C)C2CCS(=O)(=O)C2)cc1 (configuration not stated) -2.24%, CCOc1cc(CC(=O)N[C@@H](CC(C)C)c2ccccc2N2CCCCC2)ccc1C(=O)O -2.8%, Cc1cc(C)c(Cn2c(C)c(CNCCCc3ccccc3)c(C(=O)O)c2C)c(C)c1 -0.673%, COc1ccc(Cl)cc1NS(=O)(=O)c1cc(-c2cc(C)no2)ccc1C -21.7%, Cc1cc(Br)ccc1NC(=O)CCS(=O)(=O)c1cccc2nonc12 8.58%, CC(NC(=O)Cn1ncc2c3ccccc3n(Cc3ccc(F)cc3)c2c1=O)c1ccccc1 (configuration not stated) -0.816%, O=C(NCC(c1cccs1)S(=O)(=O)c1cccs1)c1ccccc1 (configuration not stated) 5.07%, CCOC(=O)N1CCN(S(=O)(=O)N2CCCC(C(=O)NCc3cccc(OC)c3)C2)CC1 (configuration not stated) -22.7%, CCC1CN(C(=O)N2CCC(C(=O)NCc3ccc(C)o3)CC2)c2cc(C)ccc2O1 (configuration not stated) -0.242%, CC1=C(C(=O)Nc2cc3cn[nH]c3cc2F)C(c2ccc(C(F)(F)F)cc2)CC(=O)N1 (configuration not stated) 5.28%, CNC(=O)c1ccccc1Nc1nc(Nc2ccc(N3CCOCC3)cc2OC)ncc1Cl -9.48%, Cc1cccc(NC(=O)c2cnn(-c3ccccc3)c2-n2cccc2)c1C -2.57%, COc1ccc(-c2cc(C(=O)Nc3c(C(=O)c4ccc(Cl)cc4)oc4ccccc34)no2)cc1 -6.3%, CC(=O)N1CCC(N(Cc2ccco2)C(=O)Nc2cccc(C)c2)CC1 3.11%, O=C(NC1CC(=O)N(c2ccc(F)cc2)C1)c1cc2ccccc2o1 (configuration not stated) 13%, CC(=O)N1CCCc2cc(S(=O)(=O)N3CCC(C(=O)NCCC(C)C)CC3)ccc21 9.28%, Cc1nc2c(C(=O)NCc3ccccc3Cl)cnn2c(C)c1Cc1c(F)cccc1Cl 23%, CCOC(=O)c1nnc2c(-c3ccc(OC)cc3)c(C)nn2c1N -19%, COc1ccccc1NC(=O)n1ncc2c(C)cccc21 3.48%, COc1ccc(OC)c(C2CC(=O)c3c([nH]c(C(=O)OCC4CCCCC4)c3C)C2)c1 (configuration not stated) -19.5%

outcome, inactive:
COc1ccc(N2CCN(C(=O)CSc3n[nH]c(-c4ccccc4)n3)CC2)cc1, COc1ccccc1CNC(=O)Cc1c(C)c2c(cc(C)c3c(C)coc32)oc1=O, CCCN(c1ccc(C(C)C)cc1)S(=O)(=O)c1ccc2c(c1)CCN2C(=O)CC, Cc1ccc(-c2nc3cc(NC(=O)c4cc5ccccc5o4)ccc3o2)cc1, COc1ccc(S(=O)(=O)NCCc2sc(C)nc2C)cc1F, Cc1cccc(N2CCN(C(=O)c3cc4c(=O)oc5ccccc5c4s3)CC2C)c1 (configuration not stated), CC1=C(C(=O)Nc2ccccc2)C(c2cccnc2)n2nc(SCc3ccccc3F)nc2N1 (configuration not stated), CCCCC(=O)Nc1cc(C)c(O)c(-c2nc3ncccc3o2)c1, Cc1cccc(C)c1NC(=O)c1ccc2c(c1)N(Cc1cccc(Cl)c1)C(=O)c1ccccc1S2=O (configuration not stated), COc1ccc(CCC(=O)NCc2ccc3c(c2)CCN3C(=O)c2ccc(F)cc2)cc1, Cc1ccsc1CCN1C(=O)N(c2ccccc2)C(=O)C1CC(=O)Nc1ccc(F)cc1 (configuration not stated), CC(=O)c1sc2c(c1C)c(=O)n(-c1ccc(Cl)cc1)c(=O)n2Cc1ccc(Cl)cc1, Cc1ccc(C)c(N2CCN(C(=O)CN3C(=O)COc4ccc(S(=O)(=O)N5CCCCCC5)cc43)CC2)c1, CCOC(=O)c1c(NC(=O)c2noc3c2CC(C(C)(C)C)CC3)sc2c1CCCC2 (configuration not stated), CCOC(=O)c1ccc(NC(=O)C2Cc3ccccc3CN2S(=O)(=O)c2ccc(Cl)cc2)cc1 (configuration not stated), CCOC(=O)c1cc2c(=O)n3ccccc3nc2n(CC2CCCO2)c1=NC(=O)c1cccc(C(F)(F)F)c1 (configuration not stated), CN1CCN(C(c2ccccc2)c2sc3nc(-c4ccco4)nn3c2O)CC1 (configuration not stated), Cc1cccc(CCn2c(=O)c3ccccc3n(Cc3cccc(F)c3)c2=O)c1

Reference: PubChem BioAssay AID1963576 (National Center for Advancing Translational Sciences (NCATS), 2024)
